This is one part of the list. For some of these results: At the low end of the ranking, values are background and their order means little.
Tested on: RARa:RXRa
Details: 270 nM : 90 nM RXRa, PBS pH 7.4, 2% milk, 0.02% Triton X-100, 1 mM DTT, BSA, 0.4 mg/ml salmon testes DNA; double strand, one strand shown

Sequence | binding signal (PBM z-score against 500 random probes)
GCAGAATCAGGTTACCAAAGATCAGGGAAACGCTTGGCGATTGACAGCGTAGAATGAAGG | 0.36
GCAGTCAAAGTGCACTAGGTAACGTAAGATTCAGCTGCGATTGACAGCGTAGAATGAAGG | 0.32
GCACTAGCAGGCCAAGTTTCGGTCACTCAAACAAAGGCGATTGACAGCGTAGAATGAAGG | 0.02
GCACAGACAGGTGAGTGAAGGTAACTCACCTGGACGGCGATTGACAGCGTAGAATGAAGG | 0.49
GCCCTACTGGGCCATCAGGACATTGATATCAACGTTGCGATTGACAGCGTAGAATGAAGG | 0.49
GCTCTAGCAGGCCAGAGTGTCACTCAAGAGGTACGGGCGATTGACAGCGTAGAATGAAGG | 0.14
GCACTAGCAGGCCAAGTTTGGTTCACTCAAACAAAGGCGATTGACAGCGTAGAATGAAGG | 0.11
GCCCGAGTATGTTATGGGGCATTCAGGCAACGGTGAGCGATTGACAGCGTAGAATGAAGG | 0.39
GCTCTTGTAGATCAGCAGGTTAACAAAGCTGGCCAAGCGATTGACAGCGTAGAATGAAGG | 0.49
GCCCTCGGAGGACAACAGGAGTTCAGAGCTGCCAGAGCGATTGACAGCGTAGAATGAAGG | 0.37
GCTCTATGAGTTGATTAGGGCAACCGAAACAGCGGAGCGATTGACAGCGTAGAATGAAGG | 0.49
GCTCATATAGATAAATGCTAGGTGAAAGTCCGATCTGCGATTGACAGCGTAGAATGAAGG | 0.49
GCTCTAGCAGGCCAGAGGTTCACTCAAGAGGTACGGGCGATTGACAGCGTAGAATGAAGG | 0.32
GCTGAATGAGGGTATAAGATCAGGGAACGTTGCAAAGCGATTGACAGCGTAGAATGAAGG | 0.23
GCAGTCAATGTTCAGGACGAGGTAACGTAAAGCACGGCGATTGACAGCGTAGAATGAAGG | 0.31
GCGGAACGAGGGCAAGTTGAGAGCAGAGTTTGATGGGCGATTGACAGCGTAGAATGAAGG | 0.48
GCTCTTGTAGATCGAGCAGGTTAAGAAAGCCTGAGTGCGATTGACAGCGTAGAATGAAGG | 0.5
GCATCTCTAGGTAAGGCTCAGTTCAGTGAAGAACGCGCGATTGACAGCGTAGAATGAAGG | 0.5
GCCCGACTGGGGCAAGTTTACCATAACGCACAGCCAGCGATTGACAGCGTAGAATGAAGG | 0.04
GCGCTCGGAGGACAAGTTCAGAGCTTTGTCCGTAGAGCGATTGACAGCGTAGAATGAAGG | 0.49

Target: T1, RARb (Homo sapiens) (UniProt P10826)
T1 sequence: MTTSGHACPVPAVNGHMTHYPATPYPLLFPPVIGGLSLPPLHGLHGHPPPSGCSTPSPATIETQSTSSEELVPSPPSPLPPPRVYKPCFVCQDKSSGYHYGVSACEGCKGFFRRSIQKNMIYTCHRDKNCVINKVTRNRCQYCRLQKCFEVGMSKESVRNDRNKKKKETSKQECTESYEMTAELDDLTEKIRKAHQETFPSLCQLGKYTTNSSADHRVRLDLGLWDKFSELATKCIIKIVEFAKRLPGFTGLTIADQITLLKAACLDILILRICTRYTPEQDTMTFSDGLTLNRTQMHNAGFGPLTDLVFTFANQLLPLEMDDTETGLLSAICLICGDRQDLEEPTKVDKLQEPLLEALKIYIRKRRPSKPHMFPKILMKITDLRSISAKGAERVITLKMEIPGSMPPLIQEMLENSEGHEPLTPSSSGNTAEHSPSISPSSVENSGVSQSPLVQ
Details: 270 nM, no RXRa, PBS pH 7.4, 2% milk, 0.02% Triton X-100, 1 mM DTT, BSA, 0.4 mg/ml salmon testes DNA; double strand, one strand shown

Sequence | binding signal (PBM z-score against 500 random probes)
GCAACAAAGCCTGTATGACAGCACATCTGTGTACAGGCGATTGACAGCGTAGAATGAAGG | -0.99
GCCTCTTGCTCCCTATTGGTCTATTGCACTGCAGAGGCGATTGACAGCGTAGAATGAAGG | 0.5
GCCTGCCTCAGCCTCCCGAGTAGCTGGGATTACAGAGCGATTGACAGCGTAGAATGAAGG | -0.7
GCGTAAGACACCTTCCTAGGAAGAGAACAGCAGAATGCGATTGACAGCGTAGAATGAAGG | -0.55
GCAGCCTCCTGTTGGGTGGTCTGGTCCACCTCCTCAGCGATTGACAGCGTAGAATGAAGG | -1.21
GCAGCAGTGAGGACCAATGGGCAGTCCAGGAGGAAAGCGATTGACAGCGTAGAATGAAGG | 0.28
GCATCTGCCTTGCTCTTTCTACCTTTCAGTGTCTTTGCGATTGACAGCGTAGAATGAAGG | -0.26
GCATCTGGCATATGTTCACTCCATGTACCACAGATAGCGATTGACAGCGTAGAATGAAGG | -0.07
GCGCCTGTGGTTGACTGAATCCACAGATGTGGAACCGCGATTGACAGCGTAGAATGAAGG | -0.48
GCCATCCTGATTCCAAAGCCTGGCAGAGACACAACCGCGATTGACAGCGTAGAATGAAGG | 0.1
GCTAACGAATGATCTTTCTAATGTGTTGTTGAATTCGCGATTGACAGCGTAGAATGAAGG | 0.02
GCAAGGAATGTAATCTAACTCTGTATTCAAAGAAGAGCGATTGACAGCGTAGAATGAAGG | -0.36
GCGGCTGTTAGCGCTCATCTCTGTGTGCCTTCACAGGCGATTGACAGCGTAGAATGAAGG | -1.11
GCTTTAGAAGAAAGGTTTCATTACTGAGAGCAGCCAGCGATTGACAGCGTAGAATGAAGG | -0.84

Target: T2, RARg (Homo sapiens) (UniProt P13631)
T2 sequence: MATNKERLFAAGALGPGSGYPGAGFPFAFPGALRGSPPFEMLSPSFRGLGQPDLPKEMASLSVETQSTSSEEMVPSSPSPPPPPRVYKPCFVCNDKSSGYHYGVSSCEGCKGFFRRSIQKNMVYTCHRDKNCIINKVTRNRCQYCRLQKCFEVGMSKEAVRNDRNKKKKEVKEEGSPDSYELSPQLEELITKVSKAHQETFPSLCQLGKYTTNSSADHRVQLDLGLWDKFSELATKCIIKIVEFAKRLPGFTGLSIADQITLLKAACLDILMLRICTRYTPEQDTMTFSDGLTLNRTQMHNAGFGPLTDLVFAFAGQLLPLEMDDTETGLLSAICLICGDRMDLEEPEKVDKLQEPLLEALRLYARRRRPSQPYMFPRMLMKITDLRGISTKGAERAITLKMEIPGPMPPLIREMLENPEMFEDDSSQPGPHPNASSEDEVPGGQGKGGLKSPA
Details: 270 nM, no RXRa, PBS pH 7.4, 2% milk, 0.02% Triton X-100, 1 mM DTT, BSA, 0.4 mg/ml salmon testes DNA; double strand, one strand shown

Sequence | binding signal (PBM z-score against 500 random probes)
GCGTAAGACACCTTCCTAGGAAGAGAACAGCAGAATGCGATTGACAGCGTAGAATGAAGG | -0.12
GCTAGGAATGTGAGTTTCTCTAAGTTCTATTCCTGGGCGATTGACAGCGTAGAATGAAGG | 0.34
GCCCTAGTTGGACCTGTGGGAAGGGCACTACTGTTCGCGATTGACAGCGTAGAATGAAGG | -0.35
GCTTTCTTTCTCTCTTGTCTGATTGCTCTGGCTAGAGCGATTGACAGCGTAGAATGAAGG | -1.24
GCAACATTTCAGTATACTTTCTAGCAACTCTGGGTAGCGATTGACAGCGTAGAATGAAGG | 0.26
GCAAGAACCAGTGGATTCATAAGGGTGACAGTTCAGGCGATTGACAGCGTAGAATGAAGG | 0.19

From article PMC6555819
